Our source for the self-cleavage values is the RNAGym collection of RNA variant scans (doi:10.7554/elife.90254).

The source gives no read counts; variants with many changes may rest on few reads.

B1: LINE1-mini (parent)
chain: GGCAGAGCUCAACACAGCGUGGCAAAGUGGCUGUGGCUAGACUGCC

In the data set the parent is B1. Description: self-cleavage, relative activity (ratio to wild type); higher = more cleavage; in vitro, sequencing; the parent is a self-cleaving ribozyme.
Take GGCAGAGCUCAACACAGCGUGGCAUAGUAGCUGUGGCUAGAGUGCC: the self-cleavage was 0.02. To GGCAGAGCUCAACACAGCGUGGCUAAGUGGCUGCGUCUAGACUGCC belongs 0.07; to GGCAGAGCUCAACACAGCGUGGCAACGUGGCCGUAGCUAGACUGCC, 0.09. Regarding GGCAGAGCUCAACACAGCGUGGCAUAGUGGCUGUGGCAAUACUGCC, the self-cleavage amounted to 0.11.

For the variant GGCAGAGCUCAACACAGCGUGGCACACUGGCGGUGGCUAGACUGCC, the self-cleavage worked out at 0.11. Turning to GGCAGAGCUCAACACAGCGUGGCAAGGUUGCUGUGGCCAGACUGCC, the self-cleavage is 0.11. As for GGCAGAGCUCAACACAGCGUGGCAACGUAGCUGUGGCUAUACUGAC, the self-cleavage was 0.01. Regarding GGCAGAGCUCAACACAGCGUGGCAAGGAGGCUGUGGCUAGACUGGC, the self-cleavage was found to be 0.72.

As for GGCAGAGCUCAACACAGCGUGGCUAAGUGGCUGUGGCUACACUUCC, the self-cleavage turned out to be 0.06. The same measure for GGCAGAGCUCAACACAGCGUGGCACAGUGGCUGUGUCUAGCCUGCC: 0.04. The same measure for GGCAGAGCUCAACACAGCGUGGCAGAAUGGCUGUGGCUAGACUUCC: 0.25; for GGCAGAGCUCAACACAGCGUGGCAGAAUGGCUGUGGCUACACUGCC: 0.02. Consider GGCAGAGCUCAACACAGCGUGGCACAGUGGCUCUGGCUAGACUACC, for which the self-cleavage worked out at 0.01. The same measure for GGCAGAGCUCAACACAGCGUGGCAUAGUGGCUGUGACUAGACCGCC: 0.05. To GGCAGAGCUCAACACAGCGUGGCAUAAUGGCUGUGGCUAGACUUCC belongs 0.14.

As to GGCAGAGCUCAACACAGCGUGGCAACGUAGCUGUGGCAAGACUGCU, the self-cleavage was 0.55.

With GGCAGAGCUCAACACAGCGUGGCACAGUGGCUGUGGCUAGGCUAAC, the self-cleavage was 0.06. Consider GGCAGAGCUCAACACAGCGUGGCAUUGUGGCUGUGGCUCGACUCUC, for which the self-cleavage was found to be 0.05. The same measure for GGCAGAGCUCAACACAGCGUGGCACAGUGGCUGUGGCAAAACUGCC: 0.04; for GGCAGAGCUCAACACAGCGUGGCAUAGUCGGUGUGGCUAGACUGCC: 0.07; for GGCAGAGCUCAACACAGCGUGGCUAAGCGGCUGUAGCUAGACUGCC: 0.08.

Turning to GGCAGAGCUCAACACAGCGUGGCUAAGCGGCUGUGGCUAGACUGCA, the self-cleavage came to 1.52. The same measure for GGCAGAGCUCAACACAGCGUGGCAGAGUGGCCGUGGCUAGAUUGCC: 0.04; for GGCAGAGCUCAACACAGCGUGGCAGAGUGUCUUUCGCUAGUUUGCC: 0.17. To GGCAGAGCUCAACACAGCGUGGCUAAGUGGCUGUGGCUACGCUGCC belongs 0.02. To GGCAGAGCUCAACACAGCGUGGCUAAGCGGCAGUGGCUAGACUGCC belongs 0.08; to GGCAGAGCUCAACACAGCGUGGCAUAUUGGCUGUGGAGAGACUACC, 0.01.

Take GGCAGAGCUCAACACAGCGUGGCACAGUGGCUGUGGCCAGACUCGC: the self-cleavage came to 0.1. The same measure for GGCAGAGCUCAACACAGCGUGGCACAGUGCCUGUGGCUAAACUGCC: 0.14; for GGCAGAGCUCAACACAGCGUGGCAGAUUGGCUGUGACUAGACUGCC: 0.23; for GGCAGAGCUCAACACAGCGUGGCAAGGUGGCUGUGACUAUACUGCC: 0.4. To GGCAGAGCUCAACACAGCGUGGCAAGUUGGCUGUGGCUAGACUGUC belongs 1.06; to GGCAGAGCUCAACACAGCGUGGCAGAGUGGCUGUUCCUAGACUGCC, 0.02.

Consider GGCAGAGCUCAACACAGCGUGGCAUAGUUGCUGUGGCUAGACUGGC, for which the self-cleavage was determined as 0.35.

Consider GGCAGAGCUCAACACAGCGUGGCAGAGUGGAUGUGACUAGACUGCC, for which the self-cleavage turned out to be 0.14.

As for GGCAGAGCUCAACACAGCGUGGCAACGUGGAUGUGGCUGGACUGCC, the self-cleavage amounted to 0.06. To GGCAGAGCUCAACACAGCGUGGCACAGUGGCGGUGCCUAGACUGCC belongs 0.08; to GGCAGAGCUCAACACAGCGUGGCAUUGUGGGUGUGGCUAGAUUGCC, 0.02; to GGCAGAGCUCAACACAGCGUGGCACAGUUGCUGUAACUAGACCGCC, 0.04. Turning to GGCAGAGCUCAACACAGCGUGGCAACGUGGGUGUCGCUCGACUGCC, the self-cleavage was 0.02. Regarding GGCAGAGCUCAACACAGCGUGGCAACGUGGCUGAGGCAAGACUGCC, the self-cleavage was determined as 0.21.

As for GGCAGAGCUCAACACAGCGUGGCAGAGUGGCGGUGUCUAGACUGCC, the self-cleavage is 0.03.

As for GGCAGAGCUCAACACAGCGUGGCACAGUCGCUGUGGCUAGACUUCC, the self-cleavage was 0.13. GGCAGAGCUCAACACAGCGUGGCACAGUCGCUGUGGCUAGACUACC: the self-cleavage is 0.15. GGCAGAGCUCAACACAGCGUGGCACAGUGUCUACGGCUAGACUGCC: the self-cleavage was 0.05. To GGCAGAGCUCAACACAGCGUGGCAUAGUGGCUGUUGCUAGAGUGGC belongs 0.1; to GGCAGAGCUCAACACAGCGUGGCACUGUGGCUUAGUCUAGACUGAC, 0.24; to GGCAGAGCUCAACACAGCGUGGCUAAGAGGCUGUGGCUACACUGCC, 0.07. To GGCAGAGCUCAACACAGCGUGGCUAAGUGGCUGUGGCGAGUCUACC belongs 0.02; to GGCAGAGCUCAACACAGCGUGGCAUAGUGGCUGUGGCUAGUAUGCC, 0.05; to GGCAGAGCUCAACACAGCGUGGCACAGUAGCUGUGGCAAGACUGCC, 0.46. To GGCAGAGCUCAACACAGCGUGGCUAAGUGGCUGUGGCGAGCCUGCG belongs 0.03; to GGCAGAGCUCAACACAGCGUGGCAUAGUGGCUGUGGCUAGAUGGCC, 0.3; to GGCAGAGCUCAACACAGCGUGGCAAGGUGGGUGUGUCUAGACUGCC, 0.02.

Regarding GGCAGAGCUCAACACAGCGUGGCAACGUGGCUGUAGCUAUACUGCC, the self-cleavage turned out to be 0.02.

Take GGCAGAGCUCAACACAGCGUGGCACAGUGACUGUUGCUAGAUUGAC: the self-cleavage was found to be 0.03.
